Measurements published in the antibiotic and cytotoxicity screens of Wong et al. (2023).
The list shows a part of the results.

Tests used:
HSkMC = human skeletal muscle cells; assay: cytotoxicity call (relative viability < 0.9); conditions: 10 µM
HepG2 = assay: cytotoxicity call (relative viability < 0.9); conditions: 10 µM
S. aureus RN4220 = assay: growth inhibition call (relative growth <= 0.2); conditions: 50 µM

| Structure (SMILES) | cytotoxicity call (HSkMC) | cytotoxicity call (HepG2) | growth inhibition call (S. aureus RN4220) |
| --- | --- | --- | --- |
| C=C(C)Cn1c(N2CCC(C(N)=O)CC2)nc2c1c(=O)n(C)c(=O)n2C | inactive | inactive | inactive |
| C[C@H]1CCCCO[C@H](CN(C)Cc2ccc(Cl)c(Cl)c2)[C@@H](C)CN([C@@H](C)CO)C(=O)c2cc(NS(C)(=O)=O)ccc2O1 | inactive | inactive | inactive |
| C[C@H]1CN([C@@H](C)CO)C(=O)c2cccc(NC(=O)Nc3ccc(C(F)(F)F)cc3)c2O[C@H]1CN(C)Cc1ccc(C(F)(F)F)cc1 | inactive | inactive | inactive |
| C[C@@H]1CCCCO[C@H](CN(C)S(=O)(=O)c2cn(C)cn2)[C@H](C)CN([C@@H](C)CO)C(=O)c2cc(N(C)C)ccc2O1 | inactive | inactive | inactive |
| CC(C)CC#Cc1ccc2c(c1)O[C@H](CN(C)C(=O)Cc1ccccn1)[C@H](C)CN([C@@H](C)CO)S2(=O)=O | inactive | inactive | inactive |
| C[C@@H]1CN([C@@H](C)CO)C(=O)Cc2cc(NC(=O)CCN3CCOCC3)ccc2O[C@@H]1CN(C)C(=O)Nc1ccc(F)cc1 | inactive | inactive | inactive |
| N#CNC1=NCN(CCN2CCOCC2)CN1 | inactive | inactive | inactive |
| COCC(=O)Nc1ccc2c(c1)CC(=O)N2C | inactive | inactive | inactive |
| COc1ccc(NC(=O)Nc2ccc3c(c2)C(=O)N([C@@H](C)CO)C[C@@H](C)[C@H](CN(C)C(=O)CCC(F)(F)F)OCCCC[C@H](C)O3)cc1 | inactive | inactive | inactive |
| NNC(=O)CCc1ccccc1 | inactive | inactive | inactive |
| C[C@@H]1CN([C@@H](C)CO)C(=O)c2cc(NS(=O)(=O)c3ccc(Cl)cc3)ccc2O[C@@H](C)CCCCO[C@@H]1CN(C)S(=O)(=O)c1ccccc1 | inactive | active | inactive |
| O=C(NCC[C@H]1CC[C@H](NS(=O)(=O)c2cccc(F)c2)[C@H](CO)O1)C1CC1 | inactive | inactive | inactive |
| Cc1noc(C)c1S(=O)(=O)Nc1ccc2c(c1)C(=O)N([C@@H](C)CO)C[C@@H](C)[C@@H](CN(C)S(=O)(=O)c1cccs1)O2 | inactive | inactive | inactive |
| COCC(=O)N(C)C[C@H]1Oc2cc(-c3ccc(OC)cc3)ccc2S(=O)(=O)N([C@H](C)CO)C[C@@H]1C | inactive | inactive | inactive |
| CC(C)(C)[S@@](=O)N1Cc2cc(C(=O)NCc3ccccc3F)nc(-c3cccc(-c4cccnc4)c3)c2[C@H]1CCO | inactive | inactive | inactive |
| CCS(=O)(=O)N1CCC[C@]2(C(=O)NCC3CC3)CN(Cc3cnn(C)c3)C[C@H]2C1 | inactive | inactive | inactive |
| O/N=C/c1ccccc1C(F)(F)F | inactive | active | inactive |
| C[C@@H]1CN([C@@H](C)CO)C(=O)c2cc(C#CC3(O)CCCC3)cnc2O[C@@H]1CN(C)C(=O)C1CCOCC1 | inactive | inactive | inactive |
| COCC(=O)N1CC[C@]2(CC1)CN([C@@H](CO)c1c2c2ccc(cc2n1C)OC)C(=O)Nc1ccccc1F | inactive | inactive | inactive |
| Cc1ccc(S(=O)(=O)N(C)C[C@H]2Oc3ccc(NS(=O)(=O)c4cn(C)cn4)cc3C(=O)N([C@@H](C)CO)C[C@@H]2C)cc1 | inactive | inactive | inactive |
| C[C@@H]1CCCCO[C@@H](CN(C)Cc2ccc3c(c2)OCO3)[C@@H](C)CN([C@H](C)CO)C(=O)c2cc(NS(=O)(=O)c3ccccc3)ccc2O1 | inactive | inactive | inactive |
| Cc1ccc(S(=O)(=O)Nc2ccc3c(c2)C(=O)N([C@H](C)CO)C[C@H](C)[C@H](CN(C)C(=O)Nc2cccc4ccccc24)OCCCC[C@H](C)O3)cc1 | active | active | inactive |
| CCCN1C(=O)C[C@@H](N2CCOCC2)C1=O | inactive | inactive | inactive |
| CC(C)CC#Cc1cnc2c(c1)C(=O)N([C@@H](C)CO)C[C@@H](C)[C@@H](CN(C)S(=O)(=O)c1cccs1)O2 | inactive | inactive | inactive |
| C[C@H](CO)N1C[C@H](C)[C@@H](CN(C)Cc2ccc(Oc3ccccc3)cc2)Oc2ccc(NC(=O)Cc3cn(C)c4ccccc34)cc2C1=O | inactive | active | inactive |
| C[C@@H]1CN([C@H](C)CO)C(=O)Cc2cc(NC(=O)Cn3cnnn3)ccc2O[C@@H]1CN(C)S(C)(=O)=O | inactive | inactive | inactive |
| CNC[C@H]1OCCCC[C@@H](C)Oc2ccc(NS(=O)(=O)c3c(C)noc3C)cc2C(=O)N([C@H](C)CO)C[C@H]1C | inactive | inactive | inactive |
